B1: LINE1-mini (parent)
chain: GGCAGAGCUCAACACAGCGUGGCAAAGUGGCUGUGGCUAGACUGCC

Read counts are not given, so values of variants with three or more changes are uncertain.

In this series the parent is B1. As to the kind of experiment: self-cleavage, relative activity (ratio to wild type); higher = more cleavage; in vitro, sequencing; the parent is a self-cleaving ribozyme.
In the case of G21C C23U C46G, the self-cleavage stood at 0.51.

Consider G22A C23A G40A, for which the self-cleavage is 0.06.

For the variant G21U G22A G36U, the self-cleavage worked out at 0.05.

Consider C23G U32A U43G, for which the self-cleavage came to 0.09.

For G21U A39G C42U, the self-cleavage is 0.18.

Turning to G21C A26G G27U, the self-cleavage is 0.22.

Turning to C23U A25G G27A U28C, the self-cleavage was found to be 1.2.

On to G21C G22C G30U, for which the self-cleavage was found to be 0.54.

For G21C U28A U32C, the self-cleavage was found to be 0.35.

With G21U G36A C46A, the self-cleavage was determined as 0.52.

On to G22A A26C G35C, for which the self-cleavage turned out to be 0.24.

As to G21A A26U G27A C37G, the self-cleavage is 0.01.

Regarding G21A G35U C45U, the self-cleavage was 0.12.

Take G21C G29A U38A: the self-cleavage was 0.17.

Turning to G22C U28A C31G G33A, the self-cleavage amounted to 0.02.

Take G22A C23U C37G C45A: the self-cleavage turned out to be 0.02.

On to G22C U28A C45A, for which the self-cleavage worked out at 0.88.

Take G21C G27U U32C C37A C45U: the self-cleavage turned out to be 0.1.

For the variant C23A A25C G44U, the self-cleavage was 0.37.

As for G21C G29A G44U, the self-cleavage amounted to 0.14.

As for C23A G40C C42U C46G, the self-cleavage amounted to 0.09.

In the case of G22U C23A A39C, the self-cleavage was 0.04.

C23A G30C U34G: the self-cleavage is 0.52.

For the variant G21U A24C A26U, the self-cleavage amounted to 0.41.

G22U C31A C37G U43C: the self-cleavage worked out at 0.15.

C23G U32A U38C A39U: the self-cleavage was determined as 0.

Take G21A C23U C42U: the self-cleavage was determined as 0.27.

In the case of G22A U43A C45U, the self-cleavage is 0.09.

For G21A G22C G27C G36U G44C, the self-cleavage amounted to 2.63.

Take C23G G30C G33C: the self-cleavage worked out at 0.01.

In the case of C23A U32A G44A, the self-cleavage was found to be 0.07.

With G21U G27A U38C, the self-cleavage was 0.87.

Take G21U G36A G44U C46U: the self-cleavage was 0.06.

Consider C23G A41G C45A, for which the self-cleavage amounted to 0.21.

As to G21C C23U C37U A41U C46G, the self-cleavage worked out at 0.22.

As for G22A G27U C42U, the self-cleavage stood at 0.26.

Take C23G G27U U28G G35C C37A: the self-cleavage came out at 0.06.

Take C23A A25C G27A G30U: the self-cleavage came out at 0.32.

In the case of G21A G22U A26U U43G G44U, the self-cleavage was found to be 0.24.

On to C23G G33A G44C, for which the self-cleavage came out at 0.03.

For the variant G22U U32C C45G, the self-cleavage is 0.06.

Regarding G21A A26G A41U, the self-cleavage is 1.08.

For the variant C23A G27A G44C, the self-cleavage is 0.57.

On to G22U C23U G27C G30U G35U G40C C45U, for which the self-cleavage worked out at 0.04.

On to G22U G30U U32G, for which the self-cleavage was found to be 0.34.

Regarding G22U A26G U38G, the self-cleavage was found to be 0.02.

As for C23A U34G G36A, the self-cleavage amounted to 0.04.

In the case of C23U A24U G29U C31A C37G, the self-cleavage came out at 0.02.

As for G22A G35U U38C, the self-cleavage was 0.11.

Take C23A A24U A26C G36A: the self-cleavage is 0.35.

Regarding G21A A26C G44U, the self-cleavage came out at 0.45.

As for C23G U28C G36C A39C, the self-cleavage came out at 0.02.

Consider G22U C23U A26G, for which the self-cleavage worked out at 0.94.

For the variant G22U G29U C45U C46A, the self-cleavage worked out at 0.16.

Take G21U G30U C46U: the self-cleavage was 1.65.

In the case of G21U G27U C37A, the self-cleavage was found to be 0.02.

Consider G22U A24G G29A, for which the self-cleavage stood at 0.94.

Take C23A C31G C42G: the self-cleavage turned out to be 0.02.

Take G22C G30A C37U: the self-cleavage is 0.07.

Consider G22C A24U C37A, for which the self-cleavage is 0.08.

For the variant C23A G29U C42G, the self-cleavage amounted to 0.03.

Consider G22A G33C C37U C42U, for which the self-cleavage came out at 0.05.

On to G21U A41U C46U, for which the self-cleavage stood at 0.16.

C23G C42G G44U: the self-cleavage amounted to 0.01.

As for G22A G29U G36U C37G, the self-cleavage came out at 0.02.

For the variant G22A G35C G36U U38C, the self-cleavage turned out to be 0.07.

For G21C C31G C45A, the self-cleavage was 0.07.

For G21A G35A C42G, the self-cleavage amounted to 0.08.

Take G22A C31A C46G: the self-cleavage was 0.14.

As for G22C G29C C42A, the self-cleavage amounted to 0.02.

Regarding C23A G29C U32G U34A, the self-cleavage was determined as 0.07.

Turning to G22C C37A C46A, the self-cleavage came to 0.07.

For G22U G30A U32A G40A, the self-cleavage came out at 0.05.

In the case of C23A G33U C46A, the self-cleavage was 0.95.

Turning to C23U A24G U28A, the self-cleavage turned out to be 1.14.

Turning to G21U A24G U38C, the self-cleavage amounted to 0.09.

Consider G22U A24G U28C, for which the self-cleavage came out at 0.18.

On to G21A A25C A41U, for which the self-cleavage is 0.86.

On to G21A C23G A26C C42U, for which the self-cleavage came to 0.

Consider G21U C31A C42A, for which the self-cleavage came to 0.05.

For the variant C23A G30U G33C G40A, the self-cleavage is 0.06.

Turning to C23A U32A U43A, the self-cleavage was 0.06.

For G21U U28A G29U G36U, the self-cleavage amounted to 0.03.

As to G22A G27U C46U, the self-cleavage turned out to be 0.59.

With G21U G22U C31A G36A G44A, the self-cleavage was found to be 0.35.

Turning to G21U A25C U34C G40U C42A, the self-cleavage amounted to 0.03.

With G21C U28A G33U C46A, the self-cleavage was 1.72.

With G21A G29U C46U, the self-cleavage is 1.45.

Take G21C U28G C46U: the self-cleavage amounted to 1.63.

On to G22A G29A U38G, for which the self-cleavage came out at 0.01.

Turning to C23A U34A G36A C46U, the self-cleavage was 0.01.

G22A G27A G44U: the self-cleavage came out at 0.22.

Regarding G22A A24G C37U, the self-cleavage is 0.02.

G21A G40C G44C: the self-cleavage is 0.07.

With G22U G27U G33U, the self-cleavage was 0.06.

Take G22C G30A A39C: the self-cleavage amounted to 0.46.

G21C C23G U32C: the self-cleavage is 0.21.

G21C G27U A41G: the self-cleavage is 0.91.

Take C23A G33U G35A A41G: the self-cleavage is 0.06.

As to C23G G36A G40U C42G, the self-cleavage came to 0.09.

With G22U G29A C31U A39U, the self-cleavage was found to be 1.43.

As to G22U C31U U32A, the self-cleavage is 0.01.

With G21A C31A A41C, the self-cleavage was 0.04.

In the case of G22A G36U U43A C45G, the self-cleavage was 0.05.

Regarding C23A G29C G36C C37A, the self-cleavage turned out to be 0.11.

For G22C G36U C45G, the self-cleavage amounted to 0.02.

For G21U C31A C46G, the self-cleavage worked out at 0.04.

As for G22A U28G C31G, the self-cleavage was 0.1.

Take C23A C31U C45A: the self-cleavage worked out at 0.68.

Consider G22U U34G C45A C46A, for which the self-cleavage came to 0.04.

In the case of G22U A24C C42A, the self-cleavage was determined as 0.17.

In the case of G21U G33U A39U, the self-cleavage was determined as 0.19.

C23A A25C C31G U32A: the self-cleavage stood at 0.13.

Turning to G22U C23U G30A, the self-cleavage came to 1.24.

On to G21U G22A U34C G36U, for which the self-cleavage came to 0.19.

Regarding C23A U28C G33C, the self-cleavage is 0.25.

As for C23A G27U A41U, the self-cleavage came to 0.44.

Turning to G21U A25U C31G, the self-cleavage came to 0.05.

On to G21U G30U C42U G44C, for which the self-cleavage came out at 0.02.

With G22U G29C U43C, the self-cleavage was determined as 0.03.

In the case of G21U U34C G35U, the self-cleavage turned out to be 0.03.

With G21C A25U C42U, the self-cleavage was found to be 0.1.

Take G21C G33U G36A: the self-cleavage worked out at 0.09.

In the case of G21U G36U A39G G44C, the self-cleavage amounted to 0.03.

With G22A C23A C37A, the self-cleavage is 0.01.

For the variant C23A A24U G30U G33A C46U, the self-cleavage was 0.2.

With G22A A41G C42A, the self-cleavage came out at 0.05.

On to G21A G30C G40C, for which the self-cleavage turned out to be 0.26.

On to G21C G30U U43A C45A, for which the self-cleavage amounted to 0.05.

For the variant C23G G33A G35U, the self-cleavage came to 0.04.

For G22U A41G C42A U43G, the self-cleavage was 0.02.

Consider C23A A24U G27A C46G, for which the self-cleavage is 2.02.

Take G22A C23G G29U: the self-cleavage was 0.16.

In the case of G22A G36A C37A, the self-cleavage came to 0.02.

In the case of C23G C31U C46G, the self-cleavage came out at 0.06.

C23A A25C G29U: the self-cleavage is 0.43.

Take G21U A24U A39U G40C: the self-cleavage was found to be 0.04.

Regarding G21A U28A A41U, the self-cleavage came to 1.78.

Turning to C23A A26G A41G, the self-cleavage came to 0.48.

With C23G G33A U34A G44C C45G, the self-cleavage turned out to be 0.02.

G21A C23G G29A A41G: the self-cleavage was 0.7.

For the variant G22C G29U G40A A41G C42U, the self-cleavage amounted to 0.09.

On to G22A C23A G29C U32C, for which the self-cleavage was 0.91.

On to G21U C31A C37U, for which the self-cleavage amounted to 0.02.

For G22C C31A U43G, the self-cleavage was determined as 0.04.

Regarding G22A G29C G30U, the self-cleavage was 0.19.

As to G21C A39C G44U C45G, the self-cleavage was 0.02.

For the variant G21U U38C G40A, the self-cleavage amounted to 0.11.

G21U U38G C45U: the self-cleavage was 0.05.

On to G22A A25C A26G A41U, for which the self-cleavage turned out to be 0.57.

Consider G21A A25G C42A G44C C45G, for which the self-cleavage was determined as 0.08.

For G22C G33C G36U, the self-cleavage came to 0.01.

Regarding G21U G22A G33A C46U, the self-cleavage came to 0.09.

Consider G21U C23G A41C, for which the self-cleavage came out at 0.04.

G22U G30A G33A: the self-cleavage was 0.48.

Consider G22C G29A G40A, for which the self-cleavage was found to be 0.07.

Regarding C23G C31U A39G G40C U43C G44A, the self-cleavage is 0.01.

As to G21A U38C C45U, the self-cleavage came to 2.8.

Consider G21U A24C C46U, for which the self-cleavage turned out to be 1.24.

Regarding G22U G27A G29C C45G, the self-cleavage is 0.1.

Consider G21A U34C C37A, for which the self-cleavage came out at 0.03.

C23G G35A G40U C42A G44A: the self-cleavage worked out at 0.03.

As for C23G A25C U38G, the self-cleavage worked out at 0.

On to C23A U32G G36U, for which the self-cleavage was determined as 0.1.

For the variant G22U C23A U34A, the self-cleavage is 0.75.

Turning to G21A C31U C45U, the self-cleavage amounted to 0.34.

Take C23A G33U G35A: the self-cleavage stood at 0.33.

The record behind these values is the RNAGym collection of RNA variant scans (doi:10.7554/elife.90254).
